Like-named read-outs stand apart in the source and are kept apart here. Results are given in words; binding and its absence hold for the method and conditions named. For some assays here: Binding seen in cells or lysates may run through a third protein. Some entries that bind do so weakly or less than the wild type. For some assays here: Sequences can lack the tags named with a protein.

Chains of the proteins cited; added tags and fusions are not shown. Residues count along the entry.
UniProt P08151: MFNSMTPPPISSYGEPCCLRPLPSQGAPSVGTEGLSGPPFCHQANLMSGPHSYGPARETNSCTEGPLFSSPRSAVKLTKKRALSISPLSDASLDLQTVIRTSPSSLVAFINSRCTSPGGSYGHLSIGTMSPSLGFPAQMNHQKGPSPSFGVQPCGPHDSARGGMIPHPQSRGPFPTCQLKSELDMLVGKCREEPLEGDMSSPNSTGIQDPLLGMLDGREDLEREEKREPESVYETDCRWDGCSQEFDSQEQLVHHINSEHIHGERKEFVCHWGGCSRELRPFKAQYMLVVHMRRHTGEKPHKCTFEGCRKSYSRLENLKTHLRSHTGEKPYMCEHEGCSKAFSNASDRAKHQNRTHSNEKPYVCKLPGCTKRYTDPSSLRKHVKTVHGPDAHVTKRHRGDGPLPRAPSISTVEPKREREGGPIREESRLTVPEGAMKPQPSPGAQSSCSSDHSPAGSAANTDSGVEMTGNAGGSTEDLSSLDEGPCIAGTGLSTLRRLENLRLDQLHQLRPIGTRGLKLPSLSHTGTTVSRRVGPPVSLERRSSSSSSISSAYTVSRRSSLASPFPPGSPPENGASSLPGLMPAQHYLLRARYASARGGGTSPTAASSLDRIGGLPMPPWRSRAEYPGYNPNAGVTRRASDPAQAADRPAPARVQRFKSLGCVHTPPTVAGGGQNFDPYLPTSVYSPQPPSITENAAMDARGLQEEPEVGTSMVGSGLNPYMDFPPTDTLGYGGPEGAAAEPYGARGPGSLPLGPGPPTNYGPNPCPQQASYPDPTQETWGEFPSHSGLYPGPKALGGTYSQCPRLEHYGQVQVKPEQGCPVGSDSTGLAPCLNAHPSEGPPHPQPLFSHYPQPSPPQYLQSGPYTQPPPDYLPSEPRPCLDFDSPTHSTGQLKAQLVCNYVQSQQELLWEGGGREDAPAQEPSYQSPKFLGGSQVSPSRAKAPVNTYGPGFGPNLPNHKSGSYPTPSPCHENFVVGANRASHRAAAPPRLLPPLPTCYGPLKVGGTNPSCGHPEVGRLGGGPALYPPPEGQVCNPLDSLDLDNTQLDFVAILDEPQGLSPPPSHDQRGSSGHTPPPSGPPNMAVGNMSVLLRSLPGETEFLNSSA
UniProt O15460, residues 22-535: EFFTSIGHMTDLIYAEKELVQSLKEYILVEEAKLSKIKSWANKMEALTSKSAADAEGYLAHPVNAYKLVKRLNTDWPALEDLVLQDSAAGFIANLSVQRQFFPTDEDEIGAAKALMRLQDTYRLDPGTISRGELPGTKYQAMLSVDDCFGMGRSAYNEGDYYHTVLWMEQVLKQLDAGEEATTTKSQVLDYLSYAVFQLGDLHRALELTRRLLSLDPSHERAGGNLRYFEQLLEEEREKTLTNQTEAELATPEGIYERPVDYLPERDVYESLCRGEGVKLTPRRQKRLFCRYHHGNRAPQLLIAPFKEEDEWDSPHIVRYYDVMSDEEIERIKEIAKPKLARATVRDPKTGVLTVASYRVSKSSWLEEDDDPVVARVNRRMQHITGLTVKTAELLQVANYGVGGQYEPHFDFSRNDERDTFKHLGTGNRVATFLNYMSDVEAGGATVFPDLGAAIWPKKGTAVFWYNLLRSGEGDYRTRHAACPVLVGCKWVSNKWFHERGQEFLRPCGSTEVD
UniProt P10070: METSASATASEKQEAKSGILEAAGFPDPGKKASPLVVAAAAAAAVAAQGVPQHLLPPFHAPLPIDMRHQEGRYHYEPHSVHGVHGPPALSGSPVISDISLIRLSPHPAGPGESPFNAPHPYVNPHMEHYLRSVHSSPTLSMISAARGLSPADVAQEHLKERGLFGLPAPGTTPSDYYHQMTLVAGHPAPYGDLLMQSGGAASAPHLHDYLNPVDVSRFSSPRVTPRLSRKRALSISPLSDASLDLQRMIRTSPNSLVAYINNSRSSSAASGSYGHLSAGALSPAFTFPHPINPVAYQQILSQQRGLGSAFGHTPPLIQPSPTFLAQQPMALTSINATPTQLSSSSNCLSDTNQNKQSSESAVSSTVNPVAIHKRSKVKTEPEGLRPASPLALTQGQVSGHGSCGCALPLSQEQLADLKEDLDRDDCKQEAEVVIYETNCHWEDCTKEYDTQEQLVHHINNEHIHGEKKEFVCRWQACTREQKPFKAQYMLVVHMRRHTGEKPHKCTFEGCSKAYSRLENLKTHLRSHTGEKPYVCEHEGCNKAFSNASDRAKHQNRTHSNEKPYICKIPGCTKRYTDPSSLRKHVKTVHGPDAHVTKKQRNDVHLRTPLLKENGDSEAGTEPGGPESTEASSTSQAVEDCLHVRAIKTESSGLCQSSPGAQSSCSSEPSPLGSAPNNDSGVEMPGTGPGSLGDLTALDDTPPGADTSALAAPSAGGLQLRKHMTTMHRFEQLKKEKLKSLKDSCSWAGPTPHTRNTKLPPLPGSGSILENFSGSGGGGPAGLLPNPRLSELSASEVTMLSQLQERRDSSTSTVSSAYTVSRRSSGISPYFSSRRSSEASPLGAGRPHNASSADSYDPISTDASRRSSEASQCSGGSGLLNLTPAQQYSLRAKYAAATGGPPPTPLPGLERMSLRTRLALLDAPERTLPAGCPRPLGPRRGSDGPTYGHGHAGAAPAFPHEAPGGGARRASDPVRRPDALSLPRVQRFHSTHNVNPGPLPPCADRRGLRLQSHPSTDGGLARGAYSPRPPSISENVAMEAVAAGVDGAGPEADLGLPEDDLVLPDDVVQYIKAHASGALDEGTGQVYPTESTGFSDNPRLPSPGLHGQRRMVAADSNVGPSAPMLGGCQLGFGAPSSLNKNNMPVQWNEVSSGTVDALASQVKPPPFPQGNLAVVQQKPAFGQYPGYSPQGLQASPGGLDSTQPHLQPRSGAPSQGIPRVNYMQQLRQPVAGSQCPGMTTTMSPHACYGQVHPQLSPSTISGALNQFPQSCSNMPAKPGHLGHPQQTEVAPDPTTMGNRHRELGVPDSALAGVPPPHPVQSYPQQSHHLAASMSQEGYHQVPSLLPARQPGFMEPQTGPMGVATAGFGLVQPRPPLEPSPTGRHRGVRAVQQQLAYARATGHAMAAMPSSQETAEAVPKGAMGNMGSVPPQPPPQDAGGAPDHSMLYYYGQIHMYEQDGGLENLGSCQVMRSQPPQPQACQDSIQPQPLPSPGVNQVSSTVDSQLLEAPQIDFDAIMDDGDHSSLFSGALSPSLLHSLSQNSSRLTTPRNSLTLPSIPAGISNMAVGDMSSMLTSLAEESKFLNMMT

One test deals with T1, His-tagged SUFU (UniProt Q9UMX1).
T1 sequence: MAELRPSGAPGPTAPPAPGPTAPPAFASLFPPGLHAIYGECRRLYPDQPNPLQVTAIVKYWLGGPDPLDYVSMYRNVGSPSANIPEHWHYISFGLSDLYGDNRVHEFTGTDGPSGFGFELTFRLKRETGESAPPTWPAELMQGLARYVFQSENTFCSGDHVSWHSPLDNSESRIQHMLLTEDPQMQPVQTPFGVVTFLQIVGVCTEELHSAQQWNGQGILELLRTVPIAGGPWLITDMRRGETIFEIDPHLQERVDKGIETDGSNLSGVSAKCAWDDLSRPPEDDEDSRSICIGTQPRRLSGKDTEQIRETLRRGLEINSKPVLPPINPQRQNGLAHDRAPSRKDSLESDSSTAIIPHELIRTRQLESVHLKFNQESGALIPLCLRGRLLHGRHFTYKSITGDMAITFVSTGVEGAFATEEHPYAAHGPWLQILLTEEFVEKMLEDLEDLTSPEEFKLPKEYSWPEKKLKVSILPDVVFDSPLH
As to the kind of experiment: pull-down; His-tagged KIF7, GLI1, SUFU and Flag-tagged P4HA2 proteins purified and incubated; His pulldown; Western blot; both purified.

For a further test, the target named is His-tagged GLI1 (UniProt P08151). The test is described as above.
For another test, the target named is T2, His-tagged KIF7 (UniProt Q2M1P5).
T2 sequence: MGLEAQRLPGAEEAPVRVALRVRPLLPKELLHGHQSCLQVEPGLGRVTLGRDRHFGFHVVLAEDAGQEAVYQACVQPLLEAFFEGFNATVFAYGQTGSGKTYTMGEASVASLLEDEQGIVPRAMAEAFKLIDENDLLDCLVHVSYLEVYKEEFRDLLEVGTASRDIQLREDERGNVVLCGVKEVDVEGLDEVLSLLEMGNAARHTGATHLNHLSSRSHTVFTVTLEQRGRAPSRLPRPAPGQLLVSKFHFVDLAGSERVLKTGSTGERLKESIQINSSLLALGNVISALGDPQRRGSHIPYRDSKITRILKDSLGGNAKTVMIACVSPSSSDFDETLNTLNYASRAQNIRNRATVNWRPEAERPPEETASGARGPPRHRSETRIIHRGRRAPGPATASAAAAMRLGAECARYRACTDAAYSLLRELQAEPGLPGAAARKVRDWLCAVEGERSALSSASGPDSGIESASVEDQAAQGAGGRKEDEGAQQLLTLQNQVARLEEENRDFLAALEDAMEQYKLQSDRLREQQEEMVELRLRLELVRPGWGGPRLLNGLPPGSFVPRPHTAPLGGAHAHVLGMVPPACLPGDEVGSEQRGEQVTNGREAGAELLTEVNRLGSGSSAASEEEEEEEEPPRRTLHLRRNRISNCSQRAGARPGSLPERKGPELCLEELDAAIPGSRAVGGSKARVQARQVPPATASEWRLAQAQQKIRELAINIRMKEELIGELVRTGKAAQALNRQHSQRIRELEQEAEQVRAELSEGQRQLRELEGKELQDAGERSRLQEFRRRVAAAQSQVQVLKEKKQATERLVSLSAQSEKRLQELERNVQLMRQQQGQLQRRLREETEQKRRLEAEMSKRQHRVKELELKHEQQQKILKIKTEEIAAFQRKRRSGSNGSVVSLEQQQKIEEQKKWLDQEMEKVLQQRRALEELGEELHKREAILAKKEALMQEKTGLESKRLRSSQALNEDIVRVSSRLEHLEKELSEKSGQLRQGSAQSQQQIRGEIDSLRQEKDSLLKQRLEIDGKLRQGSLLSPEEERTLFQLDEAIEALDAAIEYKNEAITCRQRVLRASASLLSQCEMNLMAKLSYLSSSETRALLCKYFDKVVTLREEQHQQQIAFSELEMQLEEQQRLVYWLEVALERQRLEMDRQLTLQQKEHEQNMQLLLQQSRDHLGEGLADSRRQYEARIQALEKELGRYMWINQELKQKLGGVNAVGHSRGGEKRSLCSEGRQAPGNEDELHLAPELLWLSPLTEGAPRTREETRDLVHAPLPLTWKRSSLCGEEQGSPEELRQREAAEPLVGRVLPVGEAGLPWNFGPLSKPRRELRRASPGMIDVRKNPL
Described as above.

For test [1], the target named is Flag-tagged P4HA2 (UniProt O15460). As to the kind of experiment: co-IP; HEK293T transfected with Flag-tagged constructs; lysate in RIPA or Cell Lysis Buffer; M2 anti-Flag beads, 4 °C, 3 hr; Western blot.
For a further test, the target named is T3, Flag-tagged KIF7 (UniProt Q2M1P5).
T3 sequence: T2 sequence
Described as above.

The target in test [2] is T4, KIF7 (endogenous) (human (endogenous in HEK293T)) (UniProt Q2M1P5).
T4 sequence: T2 sequence
As to the kind of experiment: co-IP; endogenous KIF7 and P4HA2 precipitated with specific antibodies from a HEK293T cell extract; immunoblotting.

Test [3] deals with P4HA2 (endogenous) (human (endogenous in HEK293T)) (UniProt O15460). The description is as above.
Test [4] addresses Flag-tagged P4HA2 (UniProt O15460). Put plainly: co-IP; HEK293T transfected with Flag-tagged constructs; lysate in RIPA or Cell Lysis Buffer; M2 anti-Flag beads, 4 °C, 3 hr; Western blot. The source holds these as a separate data set.

“Flag-tagged P4HA2 (from UniProt O15460 22-535)”: the figures for the binding result with His-tagged SUFU, in the test with His-tagged GLI1 and with His-tagged KIF7 were “no binding”, “no binding” and “binds”, respectively.

Take “GLI2 (endogenous) (from UniProt P10070 1-1586)”: the binding result with Flag-tagged P4HA2 [1] was “binds”.

As to “P4HA2 (endogenous) (from UniProt O15460 22-535)”, the binding entry (with Flag-tagged KIF7; in test [2]) was “binds” throughout.

B1: KIF7 (endogenous) (protein, UniProt Q2M1P5 1-1343)
chain: T2 sequence
With B1, the binding entry (in test [3]; in the test with Flag-tagged P4HA2 [4]) was “binds” throughout.

The values are drawn from PMC11286522.
